{"source": "PubChem BioAssay AID504832", "about": "(National Center for Advancing Translational Sciences (NCATS), 2011)", "note": "The whole screen tested about 310,000 compounds, of which about 18,000 (5.8%) were called active. This list was built around the results that the source calls inconclusive (neither active nor inactive); the mix of calls is not that of the screen. Calls come from the whole dose curve; as a rule, active = well fitted inhibition curve with a large enough effect; inconclusive = small, poorly fitted or top-dose-only effect, or another doubt; inactive = no such curve, though single readings can be large or run the other way. No potency is given beside an inconclusive call; the fits are too rough. % is set by controls: 0 for no effect and ±100 for the full control effect; potency is the fitted concentration of half-maximal effect; tags give direction and shape of the fitted curve.", "data": [{"assay": "Primary qHTS for delayed death inhibitors of the malarial parasite plastid, 48 hour incubation", "conditions": "P. falciparum luciferase growth in erythrocytes; series mostly up to 28.7 µM; activity change, negative = inhibition: at the top concentration", "procedure,_shortened": "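Erythrocytes infected with P. falciparum carrying an integrated firefly luciferase reporter (2% hematocrit, 0.1% parasitemia final) were exposed to compounds in RPMI 1640 with 0.5% Albumax at 37 C, 5% CO2. Growth inhibition was scored as reduced luminescence.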", "values": [{"smiles": "CC1CC(C)CN(S(=O)(=O)c2ccc(C(C)(C)C)cc2)C1", "note": "(centres undefined)", "Potency": "inconclusive [inhibitor, partial curve]"}, {"smiles": "COc1cc2cc(C(=O)Nc3ccccc3)c(N)nc2cc1OC", "Potency": "active: 2.33 µM"}, {"smiles": "CCOC(=O)CSc1ccc(C(=O)NCCCN2CCOCC2)cc1[N+](=O)[O-]", "activity change, negative = inhibition": "inactive: 13.1%"}, {"smiles": "O=C(C1CC1)N1CCc2cc(S(=O)(=O)NCCCN3CCCCC3)ccc21", "Potency": "inconclusive [inhibitor, single point]"}, {"smiles": "CCOC(=O)c1ccc(OCC2NCCc3cc(OC)c(OC)cc32)cc1", "note": "(centres undefined)", "Potency": "inconclusive [inhibitor, full curve, poor fit]"}, {"smiles": "Cc1cccc(NC(=S)/N=C(\\N)Nc2nc(C)c3ccccc3n2)c1", "activity change, negative = inhibition": "inactive: -1.97%"}, {"smiles": "CC(=O)Nc1ccc(S(=O)(=O)Oc2ccc(C=O)cc2)cc1", "activity change, negative = inhibition": "inactive: 0.54%"}, {"smiles": "CCCCn1c(=S)[nH]c2ccc(N3CCOCC3)cc2c1=O", "Potency": "inconclusive [inhibitor, single point]"}, {"smiles": "Cc1cc(S(=O)(=O)NCCCN2CCOCC2)c(Cl)cc1Cl", "activity change, negative = inhibition": "inactive: 19.5%"}, {"smiles": "COCc1cc(C)nc(SCC[N+](C)(C)CC(=O)Nc2cccc(C)c2)c1C#N", "Potency": "inconclusive [inhibitor, partial curve, poor fit]"}, {"smiles": "Cc1ccc(C)c(NC(=S)NC(NC(=O)N(C)C)C(Cl)(Cl)Cl)c1", "note": "(centres undefined)", "Potency": "inconclusive [inhibitor, single point]"}, {"smiles": "Cc1cc(C(=O)N2CCN(c3ccc(C(F)(F)F)cn3)CC2)c(C)o1", "Potency": "inconclusive [inhibitor, full curve, poor fit]"}, {"smiles": "Cc1cnc(C(=O)NC(Cc2ccccc2)c2ccccc2)cn1", "note": "(centres undefined)", "Potency": "inconclusive [inhibitor, partial curve, poor fit]"}, {"smiles": "CCN1C(=O)[C@H]2[C@@H](c3ccc(-c4ccc5c(c4)OCO5)cc3)N3CCC[C@@]3(C(=O)OC)[C@H]2C1=O", "Potency": "inconclusive [inhibitor, single point]"}, {"smiles": "Cc1cccc(OCc2nnc(SCC(=O)N3c4ccccc4CCc4ccccc43)o2)c1", "Potency": "active: 10.4 µM"}, {"smiles": "CCC1(c2ccccc2)NC(=O)N(CC(=O)Nc2ccccc2C(=O)NC2CC2)C1=O", "note": "(centres undefined)", "Potency": "inconclusive [inhibitor, single point]"}, {"smiles": "CCOC(=O)c1c(C)[nH]c(C(=O)COC(=O)c2ccccc2NC(=O)c2ccco2)c1C", "activity change, negative = inhibition": "inactive: -3.61%"}, {"smiles": "COc1ccc(OCC(=O)NNC(=O)c2cccc(S(=O)(=O)N(C)C)c2)cc1", "activity change, negative = inhibition": "inactive: -2.9%"}, {"smiles": "O=C(Nc1ccc(S(=O)(=O)N2CCOCC2)cc1)c1cc([N+](=O)[O-])ccc1Cl", "Potency": "inconclusive [inhibitor, single point]"}]}]}
